In PubChem BioAssay AID686979 (National Center for Advancing Translational Sciences (NCATS), 2013):
About 50,000 (12%) of roughly 420,000 compounds were called active. This list was built around the results that the source calls inconclusive (neither active nor inactive); the mix of calls is not that of the screen. Calls follow the shape of the dose curve; as a rule, active = well fitted inhibition curve with a large enough effect; inconclusive = small, poorly fitted or top-dose-only effect; inactive = flat fitted curve, though single readings scatter. No potency is given beside an inconclusive call; the fits are too rough.

Experiment: qHTS for Inhibitors of human tyrosyl-DNA phosphodiesterase 1 (TDP1): qHTS in cells in presence of CPT; also: nearly all actives have a fitted effect of over 55% in size
Settings: chicken DT40 Tdp1-/-;hTDP1 cells + 20 nM CPT, ATP luminescence, 48 h; activity change, negative = growth inhibition: at 46.2 µM (top of the series) unless noted
Procedure, shortened: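 Chicken DT40 Tdp1-/- cells stably complemented with human TDP1 were seeded at 400 cells/well in medium containing 20 nM camptothecin, exposed to pin-transferred compounds, and grown at 37 °C for at least 48 hr. Viability was read as ATP luminescence.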
% is scaled to controls: 0 for no effect and ±100 for the full control effect; potency is read from the fitted curve at half-maximal effect; tags tell the direction and shape of the fitted curve.

Question: With Nc1nc(SCC(=O)Nc2cccc([N+](=O)[O-])c2)n[nH]1 as the compound, how does the “activity change, negative = growth inhibition” value read?
Answer: Its value is inactive: 8.61%.

Question: Which Potency does the source give for Cc1ccc(-c2nc(CS(=O)CC(=O)O)c(C)o2)cc1 (stereo not drawn) here?
Answer: Its Potency is inconclusive [inhibitor, partial curve].

Question: For Cc1ccc(S(=O)(=O)c2cn(CC(=O)Nc3ccccc3)c3cc4c(cc3c2=O)OCO4)cc1, which “activity change, negative = growth inhibition” value is on record?
Answer: Its value is inactive: -1.16%.

Question: For COCCn1c(=NC(=O)CSCC(=O)Nc2cc(C)on2)sc2cc(C(=O)OC)ccc21, which Potency is on record?
Answer: Its Potency is inconclusive [inhibitor, single point].

Question: For COc1cccc(-n2cc(CNCc3cn(C)nc3-c3ccccc3F)cn2)c1, which Potency is on record?
Answer: The Potency was inconclusive [inhibitor, single point].

Question: With O=C(COc1ccccc1)N=C1SC2CS(=O)(=O)CC2N1CCc1ccccc1 (stereo not drawn) as the compound, how does the “activity change, negative = growth inhibition” value read?
Answer: The value was inactive: -5.77%.

Question: Which Potency does the source give for COc1ccc(N(C)C(=O)c2oc(=O)c3ccccc3c2-c2ccccc2)c(OC)c1 here?
Answer: Its Potency is inconclusive [inhibitor, single point].

Question: With CCn1c(SCC(=O)N2CCc3ccccc32)nc2c(c1=O)SC(C)C2 (stereo not drawn) as the compound, how does the activity change, negative = growth inhibition read?
Answer: The activity change, negative = growth inhibition was inconclusive: -23.5% [inhibitor].

Question: For Cc1cccc(C)c1N1CCN(C(=O)c2ccc3c(c2)OCO3)CC1, which Potency is on record?
Answer: The Potency was inconclusive [inhibitor, single point].

Question: With COc1cccc(CN2CC(C(=O)N(C)Cc3ccc(C)cc3)CCC2=O)c1 (stereo not drawn) as the compound, how does the “activity change, negative = growth inhibition” value read?
Answer: The value was inactive: -18.5%.

Question: With O=C(OCC(=O)N1CCc2ccccc21)[C@@H]1CC(O)CN1S(=O)(=O)c1ccc(Cl)cc1 (stereo partly drawn) as the compound, how does the activity change, negative = growth inhibition read?
Answer: The activity change, negative = growth inhibition was inconclusive: -31.3% [inhibitor].

Question: Which “activity change, negative = growth inhibition” value does the source give for CCCc1ccc(C(=O)NNc2cccc(C)c2)cc1 here?
Answer: Its value is inactive: -18.3%.

Question: Which Potency does the source give for CC(NC(=O)c1cccnc1)C(c1cccs1)N1CCN(c2ccccc2F)CC1 (stereo not drawn) here?
Answer: The Potency was active: 23.1 µM.

Question: For CC(=O)c1c(C)[nH]c(C(=O)CN2C(=O)NC3(CCCCC3C)C2=O)c1C (stereo not drawn), which “activity change, negative = growth inhibition” value is on record?
Answer: The value was inactive: -2.16%.

Question: For COc1cccc(OCc2cc(C3Nc4ccccc4C(=O)N3Cc3ccco3)ccc2OC)c1 (stereo not drawn), which Potency is on record?
Answer: The Potency was inconclusive [inhibitor, single point].

Question: For CC1=C(C(=O)OCc2ccccc2)C(c2cccnc2)n2nnnc2N1 (stereo not drawn), which Potency is on record?
Answer: The Potency was inconclusive [inhibitor, single point].

Question: Which Potency does the source give for Cc1cccc(-c2ncc(CN3CCCC(CO)(Cc4cccc(Cl)c4)C3)cn2)c1 (stereo not drawn) here?
Answer: Its Potency is inconclusive [inhibitor, single point].

Question: For CCOC(=O)N1CCC(NC(=O)CSCc2nc(-c3ccc(C)cc3)oc2C)CC1, which Potency is on record?
Answer: Its Potency is inconclusive [inhibitor, partial curve].

Question: With CCc1ccc(Nc2nc3ccccc3c3nnc(C)n23)cc1 as the compound, how does the Potency read?
Answer: Its Potency is active: 8.2 µM.

Question: With CC1Cc2cc(S(=O)(=O)CCC(=O)NC3CCCCC3)ccc2N1C(=O)C1CC1 (stereo not drawn) as the compound, how does the Potency read?
Answer: The Potency was inconclusive [inhibitor, single point].

Question: With Cc1oc(-c2ccccc2F)nc1CSCC(=O)NC1CC1 as the compound, how does the Potency read?
Answer: Its Potency is inconclusive [inhibitor, single point].

Question: For CCOc1cccc(/C=N/NC(=S)Nc2cc(S(=O)(=O)N3CCOCC3)ccc2N2CCOCC2)c1O, which Potency is on record?
Answer: The Potency was active: 5.8 µM.

Question: Which Potency does the source give for Clc1cccc(CNc2ccn3nc(-c4ccccc4)cc3n2)c1 here?
Answer: The Potency was active: 23.1 µM.

Question: Which Potency does the source give for CC(C)(C)Nc1nc(SCc2ccccc2)nc(N2CCOCC2)n1 here?
Answer: Its Potency is inconclusive [inhibitor, single point].

Question: With Clc1cccc(OCCOCCN2CCNCC2)c1Cl as the compound, how does the “activity change, negative = growth inhibition” value read?
Answer: Its value is inactive: -18.2%.

Question: With COc1cc(-c2cc(=O)c3c(O)c(OC)c(OC)cc3o2)cc(OC)c1O as the compound, how does the Potency read?
Answer: The Potency was active: 16.4 µM.

Question: With CCCS(=O)(=O)NC(=O)C1(C)CCN1C(=O)Cc1ccc(Cl)cc1Cl (stereo not drawn) as the compound, how does the “activity change, negative = growth inhibition” value read?
Answer: The value was inactive: 8.41%.

Question: With O=C(c1ccc(S(=O)(=O)Nc2ccc(F)cc2)cc1)N1CCN(C(=O)c2ccco2)CC1 as the compound, how does the Potency read?
Answer: The Potency was active: 13 µM.

Question: For Cc1nn(-c2cc(N3CCCCCC3)ccc2[N+](=O)[O-])c(=O)c2ccccc12, which “activity change, negative = growth inhibition” value is on record?
Answer: Its value is inactive: -27.7%.

Question: For COc1ccc(O)c(/C=N/NC(=O)CSc2nnc(C)n2-c2ccccc2)c1, which Potency is on record?
Answer: Its Potency is active: 16.4 µM.

Question: Which Potency does the source give for CC1=Nc2ccccc2/C1=C\c1nc(-c2ccc(C(F)(F)F)cc2)oc1O here?
Answer: The Potency was inconclusive [inhibitor, single point].

Question: Which Potency does the source give for Cc1nc(C)c(-c2csc(Nc3ccc(N)cc3)n2)s1 here?
Answer: The Potency was inconclusive [inhibitor, single point].

Question: With CC(C)C[C@H]1CNC(=S)N1CC1CCN(CCCC2CCCCC2)CC1 as the compound, how does the Potency read?
Answer: Its Potency is active: 18.4 µM.

Question: For COc1cccc(CSCC(=O)NCCc2ccccc2)c1OC, which activity change, negative = growth inhibition is on record?
Answer: The activity change, negative = growth inhibition was inconclusive: -3.32% [inhibitor].

Question: Which Potency does the source give for CCc1nnc(NC(=O)CSc2ncc(-c3ccccc3)n2CC)s1 here?
Answer: The Potency was inconclusive [inhibitor, single point].

Question: For CN1CCN(c2ncnc3c2[nH]c2ccc(F)cc23)CC1, which Potency is on record?
Answer: The Potency was inconclusive [inhibitor, single point].

Question: For CCOC(=O)c1c(NC(=O)CSc2nc3cc(Cl)ccc3c(=O)n2Cc2ccco2)sc(C(=O)N(C)C)c1C, which Potency is on record?
Answer: The Potency was inconclusive [inhibitor, single point].

Question: For Cc1cc2[nH]c3ccccc3c2c(C)n1, which Potency is on record?
Answer: The Potency was inconclusive [inhibitor, single point].

Question: For Cc1ccc(C(=O)N2C(=O)C(c3ccccc3)Oc3ccccc32)cc1 (stereo not drawn), which Potency is on record?
Answer: The Potency was inconclusive [inhibitor, single point].

Question: For COc1ccc(C)cc1NC(=O)C(c1ccccc1)N1CCN(CC(=O)NC2CC2)CC1 (stereo not drawn), which Potency is on record?
Answer: The Potency was inconclusive [inhibitor, single point].

Question: With O=C1c2ccccc2C(Nc2ccc(-c3nc4ccccc4[nH]3)cc2)N1Cc1ccco1 (stereo not drawn) as the compound, how does the Potency read?
Answer: Its Potency is inconclusive [inhibitor, single point].

Question: For CCOc1ccc(-c2cn(-c3cccc(SC)c3)c(=O)[nH]2)cc1, which Potency is on record?
Answer: The Potency was inconclusive [inhibitor, single point].

Question: Which Potency does the source give for O=C(c1ccc(F)cc1F)N1CCCN(c2nc(-c3ccccc3)ns2)CC1 here?
Answer: The Potency was inconclusive [inhibitor, single point].

Question: Which Potency does the source give for CCc1ccc(S(=O)(=O)c2nnn3c2nc(NCCC(C)C)c2cc(Cl)ccc23)cc1 here?
Answer: The Potency was inconclusive [inhibitor, single point].

Question: With CN(Cc1nc(-c2ccncc2)no1)S(=O)(=O)c1ccc(Cl)cc1 as the compound, how does the Potency read?
Answer: The Potency was inconclusive [inhibitor, single point].

Question: Which Potency does the source give for CCOC(=O)C1CCCN(C(=O)Nc2cccc(Cl)c2)C1 (stereo not drawn) here?
Answer: Its Potency is inconclusive [inhibitor, full curve, poor fit].

Question: Which Potency does the source give for CCOC(=O)c1c(C)[nH]c(C(=O)OCC(=O)N(C)CC(=O)Nc2ccccc2Cl)c1C here?
Answer: The Potency was inconclusive [inhibitor, single point].

Question: For CCOC(=O)C1CCCN(C2=NC(=O)/C(=C/c3ccc(N(C)C)cc3)S2)C1 (stereo not drawn), which Potency is on record?
Answer: Its Potency is inconclusive [inhibitor, single point].

Question: Which “activity change, negative = growth inhibition” value does the source give for Cc1ccc(S(=O)(=O)N2C[C@H]3[C@H]4C(=O)N(c5ccccc5)C(=O)[C@H]4C[C@H](OC(=O)NCc4ccccc4)[C@@]3(O)C2)cc1 here?
Answer: The value was inactive: -15.6%.

Question: Which Potency does the source give for Cc1cc(Cl)ccc1-c1nc(NCc2ccccc2)nc2ccsc12 here?
Answer: Its Potency is inconclusive [inhibitor, single point].

Question: For Cc1c(Cl)cccc1NC(=O)c1cc(-c2ccccc2O)n[nH]1, which Potency is on record?
Answer: The Potency was inconclusive [inhibitor, single point].

Question: With C/C(=N/NS(=O)(=O)c1cc(C)ccc1C)c1c[nH]c2ccccc12 as the compound, how does the Potency read?
Answer: Its Potency is inconclusive [inhibitor, single point].

Question: Which Potency does the source give for CCc1ccc(S(=O)(=O)Nc2cccc(C3OCCCO3)c2)cc1 here?
Answer: The Potency was inconclusive [inhibitor, partial curve, poor fit].

Question: With COc1ccc(NC(=O)c2ccc(Br)o2)cc1 as the compound, how does the Potency read?
Answer: The Potency was inconclusive [inhibitor, single point].

Question: For COc1ccc2c(c1)c(CC(=O)Nc1cc(C)c(OC)c(C)c1)c(C)n2C(=O)c1ccc(Cl)cc1, which Potency is on record?
Answer: The Potency was inconclusive [inhibitor, single point].

Question: With CCCCC1(Cc2ccc([N+](=O)[O-])cc2)C(=O)N(c2ccccc2)N(c2ccccc2)C1=O as the compound, how does the Potency read?
Answer: The Potency was inconclusive [inhibitor, single point].

Question: Which Potency does the source give for COc1cc(NC(=O)c2onc(C)c2Cl)c(OC)cc1Cl here?
Answer: Its Potency is inconclusive [inhibitor, single point].

Question: With C[C@@H](C(=O)NCc1ccc(S(C)(=O)=O)cc1)[C@@H]1C[C@@]1(C)[C@@H](NC(=O)OCc1ccccc1)c1ccccc1 as the compound, how does the Potency read?
Answer: The Potency was active: 20.6 µM.

Question: Which Potency does the source give for CC(CCc1ccccc1)NC(=O)C1CCCN(c2nnc(-n3cccc3)s2)C1 (stereo not drawn) here?
Answer: Its Potency is active: 18.4 µM.

Question: For CCOc1ccc(NC(=O)Nc2nc3ccc(S(C)(=O)=O)cc3s2)cc1, which “activity change, negative = growth inhibition” value is on record?
Answer: The value was inactive: -27%.

Question: For CCOC(=O)C1(CCCc2ccccc2)CCN(C(=O)Cc2nonc2C)CC1, which Potency is on record?
Answer: Its Potency is inconclusive [inhibitor, single point].

Question: For CC(=O)c1ccc(N2CCN(C(=O)/C=C/c3ccc4ccccc4n3)CC2)cc1, which Potency is on record?
Answer: Its Potency is inconclusive [inhibitor, single point].

Question: Which Potency does the source give for CCOc1ccccc1C(=O)NC(C(=O)Nc1ccccc1N1CCOCC1)C(C)C (stereo not drawn) here?
Answer: Its Potency is inconclusive [inhibitor, partial curve].

Question: With CCc1ccc(Nc2cc(C(=O)NCCCN3CCOCC3)c3ccccc3n2)cc1 as the compound, how does the Potency read?
Answer: Its Potency is inconclusive [inhibitor, single point].

Question: Which Potency does the source give for Cc1occc1C(=O)Nc1ccc2ccccc2c1 here?
Answer: Its Potency is inconclusive [inhibitor, single point].

Question: Which “activity change, negative = growth inhibition” value does the source give for O=C(COc1ccc(Cl)cc1)N(Cc1cccs1)C1CCS(=O)(=O)C1 (stereo not drawn) here?
Answer: The value was inactive: -25.3%.

Question: For N/C(=N\OC(=O)c1ccccc1Br)c1ccc([N+](=O)[O-])cc1, which “activity change, negative = growth inhibition” value is on record?
Answer: Its value is inactive: -23.9%.

Question: For COc1ccccc1Nc1ncnc2c1nc1n2CCCCC1, which Potency is on record?
Answer: The Potency was inconclusive [inhibitor, single point].
